Results on 172 sequences are retold here after PMC4242493.

This is one part of the list. The list includes weakly bound sequences.

The target in the assay is MaxL homodimer (UniProt P61244). As to the kind of experiment: universal protein-binding microarray (PBM). To be noted: PBS-based mixture, 10 nM His-tagged protein dimer, 2% milk, 200 ng/uL BSA, 50 ng/uL salmon testes DNA, 0.02% TX-100; detection with Alexa 488 anti-His …; high values mean tight binding; most listed sequences are background and not binding sites; double strand, one strand shown.
Chain of UniProt P61244 (P61244 whole entry): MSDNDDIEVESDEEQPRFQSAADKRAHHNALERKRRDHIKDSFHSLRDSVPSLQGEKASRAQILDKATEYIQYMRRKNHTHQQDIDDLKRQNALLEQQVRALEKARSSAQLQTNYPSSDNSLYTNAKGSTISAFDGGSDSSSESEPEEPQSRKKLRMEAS
On to GGGTTTTA, for which the binding signal (normalized occupancy) came to 0.0768. For the sequence CTGCAAAG, the binding signal (normalized occupancy) amounted to 0.0662.

Regarding ATACGAGA, the binding signal (normalized occupancy) was 0.0785.

In the case of GGCCAACC, the binding signal (normalized occupancy) turned out to be 0.0741.

Take CGCCGCTC: the binding signal (normalized occupancy) turned out to be 0.0669.

As for ACAAAAAA, the binding signal (normalized occupancy) came out at 0.0723. Take TCACCAAA: the binding signal (normalized occupancy) amounted to 0.0792.

With GCAGTACA, the binding signal (normalized occupancy) amounted to 0.0754. Regarding TCTCTAAA, the binding signal (normalized occupancy) amounted to 0.0709. For CCTGTGTC the value was 0.0725; for AACATAAT, 0.0823; for AAGGTTGA, 0.0728. For AGTCCGAA, the binding signal (normalized occupancy) came out at 0.0706. The result for AATAAGAT reads 0.0727; that for GTGTTTGA, 0.0829.

As to ATTCCATC, the binding signal (normalized occupancy) came out at 0.0772. Turning to ACATTAGA, the binding signal (normalized occupancy) was determined as 0.0826. For CCAAGTGG the value was 0.0717; for GTGGAAAC, 0.079; for ATCACTCG, 0.08.

On to CTGGCTCC, for which the binding signal (normalized occupancy) was 0.0673. For CGAGGCAC the value was 0.0822; for ACACGTTA, 0.118; for CAATCGGC, 0.0694. For AATTCCAT the value was 0.0775; for CAACAATG, 0.0787; for AAATAGTA, 0.076. On to ATGAAATG, for which the binding signal (normalized occupancy) turned out to be 0.081.

AGCTAAGC: the binding signal (normalized occupancy) was found to be 0.0662.

On to CGATCTAG, for which the binding signal (normalized occupancy) stood at 0.0719.

Turning to AATGGACT, the binding signal (normalized occupancy) worked out at 0.073. In the case of CTGACCAC, the binding signal (normalized occupancy) was 0.0772. In the case of AGTTACTC, the binding signal (normalized occupancy) stood at 0.0718.

Turning to ATTCGAAG, the binding signal (normalized occupancy) amounted to 0.074. Take CTGGTGCA: the binding signal (normalized occupancy) amounted to 0.0776. For TGATACAA the value was 0.0772; for GGGGGGAA, 0.0895; for GTATCATA, 0.0848. For CATCGGGG the value was 0.0782. Regarding CACTCCAG, the binding signal (normalized occupancy) was found to be 0.0748.

Regarding CACAAGGA, the binding signal (normalized occupancy) is 0.0818. Consider AGGGGATC, for which the binding signal (normalized occupancy) is 0.0787. Regarding AGGGCACA, the binding signal (normalized occupancy) is 0.0772. As to CATTGCCG, the binding signal (normalized occupancy) was 0.0713. In the case of ACACATAT, the binding signal (normalized occupancy) was found to be 0.0874.

Regarding GCCCTACC, the binding signal (normalized occupancy) turned out to be 0.07. Consider CCTCAGCA, for which the binding signal (normalized occupancy) was 0.0731. Regarding GTAGTTAA, the binding signal (normalized occupancy) turned out to be 0.0781.

Take CAGCGCAG: the binding signal (normalized occupancy) worked out at 0.0701. In the case of CCCGAAGC, the binding signal (normalized occupancy) is 0.0698. Regarding AGGAGATA, the binding signal (normalized occupancy) was 0.08. With GGGGAGAA, the binding signal (normalized occupancy) stood at 0.0797.

Turning to GATGGTGA, the binding signal (normalized occupancy) stood at 0.0878. For ACGCCCAT the value was 0.0792; for CAGTGGTA, 0.0768. For AGCTCTCA, the binding signal (normalized occupancy) was 0.0708.

As for CCTAGACA, the binding signal (normalized occupancy) was 0.0763.

Consider AACCATGT, for which the binding signal (normalized occupancy) stood at 0.0862. The result for GACACTAC reads 0.0741; that for ACGGGTAG, 0.0748; that for AGCCTTGC, 0.0678. In the case of CTCAGAAG, the binding signal (normalized occupancy) amounted to 0.0683. Consider AGGGATAG, for which the binding signal (normalized occupancy) amounted to 0.078.

Turning to CCGATTCC, the binding signal (normalized occupancy) came out at 0.0698. As to ATTGTTGA, the binding signal (normalized occupancy) was 0.0777. For AGCTCGTC the value was 0.0632. For CCCCCGGA, the binding signal (normalized occupancy) is 0.0713. The result for AACACACA reads 0.0847; that for AAGTCAGT, 0.0707; that for CGAACTAA, 0.0684. For AACGTGTA the value was 0.11. For the sequence CCCTAGCA, the binding signal (normalized occupancy) amounted to 0.079.

Take CTTCGGAA: the binding signal (normalized occupancy) worked out at 0.0648. For ACCAACAG the value was 0.0726; for GATTATGC, 0.0788. With CGCCCCCA, the binding signal (normalized occupancy) was 0.0794. As for AATCGGTG, the binding signal (normalized occupancy) came to 0.071. As for CCCATGAA, the binding signal (normalized occupancy) was found to be 0.0827.

Turning to TACTCCCA, the binding signal (normalized occupancy) was 0.0786.

For the sequence GGCTTCAA, the binding signal (normalized occupancy) amounted to 0.0709.

As to ATCATGTG, the binding signal (normalized occupancy) came out at 0.137. As to GTCATCCA, the binding signal (normalized occupancy) was 0.0814. Turning to CTCAGGCC, the binding signal (normalized occupancy) was 0.0749. For the sequence AGGCCGGG, the binding signal (normalized occupancy) was found to be 0.0664. ATTCATAG: the binding signal (normalized occupancy) worked out at 0.075.

AAGACAGG: the binding signal (normalized occupancy) was determined as 0.0727. As to AAATGCCT, the binding signal (normalized occupancy) came to 0.0805. For GTAGTCTA the value was 0.0723; for ATTACACG, 0.0847; for GCGCCCGC, 0.0684. The result for CACACGAG reads 0.0978. For the sequence ACTAGGCA, the binding signal (normalized occupancy) worked out at 0.0757. As for CGTTTACA, the binding signal (normalized occupancy) stood at 0.0739. For AATATTCA the value was 0.079; for GCCTTCAA, 0.0735. GATGTTCA: the binding signal (normalized occupancy) is 0.0756. For CCATCAGA, the binding signal (normalized occupancy) is 0.077. Regarding AGGTGTCA, the binding signal (normalized occupancy) worked out at 0.0794.

GTCTATGA: the binding signal (normalized occupancy) amounted to 0.0735. For AATCGTTA, the binding signal (normalized occupancy) amounted to 0.0761.

As to ATTGTGCC, the binding signal (normalized occupancy) was determined as 0.0808.

As for AATTAGCT, the binding signal (normalized occupancy) was determined as 0.0717. The result for AGGTACGG reads 0.0689; that for ACAGCCGT, 0.0716. Take AAATATTT: the binding signal (normalized occupancy) worked out at 0.0809.

With ACTCCGTA, the binding signal (normalized occupancy) came to 0.0697. For ATTGCGTC the value was 0.0761; for CCCACGCC, 0.099. For AGGGAAAA, the binding signal (normalized occupancy) amounted to 0.0755. For GAAGCATA the value was 0.075; for TGAAAAAA, 0.074.

GAGTTTGC: the binding signal (normalized occupancy) was 0.0731. As to CAATTTGC, the binding signal (normalized occupancy) amounted to 0.0711. The result for CCGGTGAA reads 0.0709; that for ACCGCTCG, 0.0704; that for CCCTGAAC, 0.079. With TACATGGA, the binding signal (normalized occupancy) was 0.0848. In the case of CCCGCACG, the binding signal (normalized occupancy) came to 0.0845.

For CAAGAACA, the binding signal (normalized occupancy) came to 0.075. On to AACGTTCG, for which the binding signal (normalized occupancy) was determined as 0.0711. The result for ATCGGACC reads 0.0691; that for ATGCCTAG, 0.0767; that for AAACACAC, 0.0879. With ATCTGGGG, the binding signal (normalized occupancy) stood at 0.0754.

Take ACTCGAGG: the binding signal (normalized occupancy) came out at 0.0766. With ACACCTAT, the binding signal (normalized occupancy) was 0.0786. As to GTAGCCAC, the binding signal (normalized occupancy) came to 0.0749. With GCTACCAA, the binding signal (normalized occupancy) is 0.0737. With AGTCGTGG, the binding signal (normalized occupancy) was determined as 0.0775. With AGATGCTG, the binding signal (normalized occupancy) amounted to 0.078.

As to CGGCCACG, the binding signal (normalized occupancy) amounted to 0.0871. For the sequence CGTCGTAC, the binding signal (normalized occupancy) is 0.0758. TCCGGCCA: the binding signal (normalized occupancy) stood at 0.0655. AGCGTATC: the binding signal (normalized occupancy) came to 0.0784.

Regarding TAGAGTCA, the binding signal (normalized occupancy) is 0.0824. Consider GAATTGTC, for which the binding signal (normalized occupancy) worked out at 0.0721. Regarding GAGACTAA, the binding signal (normalized occupancy) stood at 0.0684. For CAATTTGA the value was 0.0713; for CCCTATTC, 0.0783. On to GCACATGA, for which the binding signal (normalized occupancy) came out at 0.12. Turning to TTATTAAA, the binding signal (normalized occupancy) came to 0.0787. Turning to CAACGTGC, the binding signal (normalized occupancy) was determined as 0.122. For CGCATTTC the value was 0.0783; for ACGGAAGG, 0.0728. As to ACATACAG, the binding signal (normalized occupancy) amounted to 0.0868. With GTGTACTA, the binding signal (normalized occupancy) was found to be 0.0798. On to CATAGCGC, for which the binding signal (normalized occupancy) worked out at 0.0707. As for ATTCAGCG, the binding signal (normalized occupancy) stood at 0.0733.

AGGATTCC: the binding signal (normalized occupancy) turned out to be 0.071.

On to GGAACCCC, for which the binding signal (normalized occupancy) is 0.0696. For the sequence CCAAAACA, the binding signal (normalized occupancy) was determined as 0.0783. For CACCACGC the value was 0.119; for CCGAACCC, 0.0766.

With ACTGGGCT, the binding signal (normalized occupancy) turned out to be 0.0665. As for AGGCACAA, the binding signal (normalized occupancy) is 0.0747. Turning to AAGCTACG, the binding signal (normalized occupancy) amounted to 0.0726. As for CTTCACTA, the binding signal (normalized occupancy) was determined as 0.0774. In the case of AATCCCAC, the binding signal (normalized occupancy) came out at 0.0848.

In the case of AACGGGAG, the binding signal (normalized occupancy) amounted to 0.0711. For GCCTGCAC the value was 0.0692. In the case of GTAGCCGA, the binding signal (normalized occupancy) is 0.0653. Turning to CTACAGAA, the binding signal (normalized occupancy) stood at 0.075. In the case of GGACACCC, the binding signal (normalized occupancy) came out at 0.0753. Regarding GTATGTCA, the binding signal (normalized occupancy) amounted to 0.0841.

Consider AATTATTG, for which the binding signal (normalized occupancy) turned out to be 0.0729.

Consider AGGGGTTG, for which the binding signal (normalized occupancy) is 0.0811.

For GCTCATAC, the binding signal (normalized occupancy) amounted to 0.0755. On to CCGCACGA, for which the binding signal (normalized occupancy) stood at 0.0824. Turning to CGATTGTC, the binding signal (normalized occupancy) was found to be 0.0706.

As to ATTCCGCG, the binding signal (normalized occupancy) stood at 0.0718. For the sequence CATATTGG, the binding signal (normalized occupancy) is 0.0794. As for TGCTAGAA, the binding signal (normalized occupancy) is 0.0722.
